In all, about 200,000 compounds went through this assay and about 10 (0.005%) were called active. This list was built around the results that the source calls inconclusive (neither active nor inactive); the mix of calls is not that of the screen. Calls follow the shape of the dose curve; as a rule, active = well fitted inhibition curve with a large enough effect; inconclusive = small, poorly fitted or top-dose-only effect, or effect the other way, or another doubt; inactive = no such curve, though single readings can be large or run the other way. No potency is given beside an inconclusive call; the fits are too rough.
Target: Lysosomal alpha-glucosidase (Homo sapiens) (UniProt P10253)
Assay: qHTS Assay for Inhibitors of Human alpha-Glucosidase as a Potential Chaperone Treatment of Pompe Disease;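 as to activity change, negative = inhibition: plate controls were uninhibited enzyme wells for no effect and no-enzyme background for full effect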
Settings: purified human GAA, 4-MU-alpha-glucoside fluorescence; activity change, negative = inhibition: at 76.9 µM (top of the series) unless noted
Outline: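 Enzyme (4 nM final) mixed with compound (up to 77 uM), then 4-MU-alpha-D-pyranoside (400 uM final) added; 20 min at room temperature, pH 5.0. Reaction stopped at pH 10, fluorescence read, AC50 derived by Hill fit.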
Potency is read from the fitted curve at half-maximal effect; tags tell the direction and shape of the fitted curve.

| Compound | activity change, negative = inhibition | Potency |
| --- | --- | --- |
| COc1ccc(Cl)cc1N1C(=N)SCC1=O | inconclusive: 15.5% [activator] | – |
| CC(C)CCNC(=O)C(=O)NC1CCCC1 | – | inconclusive [inhibitor, partial curve, poor fit] |
| NC(=O)c1sc(=S)n(-c2ccc(Br)cc2)c1N | – | inconclusive [inhibitor, partial curve, poor fit] |
| COCCn1c(=NC(=O)c2nc3ccccc3s2)sc2cc(S(C)(=O)=O)ccc21 | – | inconclusive [inhibitor, full curve] |
| Cc1ccc(-c2noc(CCC(=O)Nc3ccc(C)cn3)n2)cc1 | inconclusive: -15.2% [inhibitor] | – |
| Nc1cccc(-c2nc3ccc(N)cc3s2)c1 | – | inconclusive [activator, partial curve] |
| CC(Sc1ncnc2ccccc12)C(=O)Nc1ccc2c(c1)OCO2 (stereo not drawn) | – | inconclusive [inhibitor, partial curve, poor fit] |
| CCN(CC)c1ccc2c(c1)C(=O)N(C)C2=O | inconclusive: -17.2% [inhibitor] | – |
| Clc1ccc(OCCCNCc2ccccc2)c(Br)c1 | inconclusive: -16.4% [inhibitor] | – |
| Cc1cc(C)cc(NC(=O)N2CCCC2C(=O)NCc2ccco2)c1 (stereo not drawn) | inconclusive: 16.8% [activator] | – |
| COc1ccc(C2=Nn3c(nnc3-c3ccc(OC)cc3)SC2)cc1 | – | inconclusive [inhibitor, single point] |
| COc1cccc(N2C(=O)CC(Nc3ccc(N4CCOCC4)cc3)C2=O)c1 (stereo not drawn) | inactive: -0.392% | – |
| O=C(c1ccc(CS(=O)(=O)c2ccc(Br)cc2)o1)N1CCCCCC1 | – | inconclusive [inhibitor, single point] |
| Cc1cc2ccccc2n1CCNC(=O)c1ccc(S(=O)(=O)N2CCOCC2)cc1 | – | inconclusive [inhibitor, partial curve] |
| Cc1ccc(CNCc2cc3c(C(C)(C)C)nn(-c4ccccc4)c3[nH]c2=O)cc1 | – | inconclusive [inhibitor, single point] |
| O=C(Cc1ccc(Cl)cc1)NCCN1CCCC1 | – | inconclusive [inhibitor, single point] |
| CCc1c(C)nc(N)c(C#N)c1-c1ccccc1 | inconclusive: 19.8% [activator] | – |
| CC(C)c1ccc(NC(=O)CCNS(=O)(=O)c2cccc3nsnc23)cc1 | – | inconclusive [inhibitor, single point] |
| Cc1cc[n+](CC(=O)c2cc3ccccc3oc2=O)cc1 | – | inconclusive [inhibitor, single point] |
| CC1=Nc2ccccc2N=C(NC(=O)c2ccccc2)C1c1ccc(Cl)cc1 (stereo not drawn) | inactive: -2.88% | – |
| COc1cccc(C(=O)N(Cc2nc(-c3ccc(C)cc3)no2)C(C)C)c1 | inactive: -3.12% | – |
| O=C(COc1ccc(Cl)cc1Cl)N1CCCCCC1 | – | inconclusive [inhibitor, partial curve] |

| Compound | activity change, negative = inhibition | Potency |
| --- | --- | --- |
| CCn1nnnc1SCC(=O)Nc1nnc(C(C)C)s1 | – | inconclusive [inhibitor, full curve, poor fit] |
| CCCN(CC1CC1)c1nc(N)c2c(N)nc(OC)cc2c1C#N | – | inconclusive [inhibitor, single point] |
| Cc1cc(-c2ccccc2)[nH]c(=O)c1S(=O)(=O)c1ccc(Cl)cc1 | – | inconclusive [activator, partial curve] |
| CNC(=O)CN1C(=O)c2ccccc2S1(=O)=O | – | inconclusive [inhibitor, single point] |
| COc1cc(/C=N/N2C(=O)C3C4c5ccccc5C(c5ccccc54)C3C2=O)ccc1O (stereo not drawn) | – | inconclusive [inhibitor, single point] |
| Cc1ccccc1-n1ncc2c(SCC(=O)NCc3cccs3)ncnc21 | – | inconclusive [activator, partial curve, poor fit] |
| CN(C)Cc1c(O)ccc2c3c(c(=O)oc12)CCCCC3 | – | inconclusive [activator, partial curve] |
| NC(=O)COC(=O)c1cccc(S(=O)(=O)N2CCCc3ccccc32)c1 | – | inconclusive [activator, full curve, poor fit] |
| CN1CC(C(=O)O)Cc2c1ccc1ccccc21 (stereo not drawn) | – | inconclusive [activator, single point] |
| Cc1ccccc1-c1nc(SCc2ccccn2)c2c(=O)n(C)c(=O)n(C)c2n1 | inconclusive: 14.6% [activator] | – |
| Clc1ccc(N2N=C(c3cccs3)CC2c2ccco2)cc1 (stereo not drawn) | – | inconclusive [activator, partial curve] |
| COC(=O)CCC(=O)NC(=S)Nc1cc(Cl)ccc1Cl | – | inconclusive [inhibitor, partial curve] |
| CCCc1cc(C(F)(F)F)c(C#N)c(=O)[nH]1 | – | inconclusive [activator, single point] |
| CCOC(=O)c1c(-c2ccc(OC)cc2)csc1NC(=O)CSc1ccccc1 | – | inconclusive [inhibitor, full curve] |
| COc1cc(CNc2ccc(NC(C)=O)cc2)ccc1OCc1ccccc1C | – | inconclusive [inhibitor, single point] |
| Cc1nn(Cc2ccccc2)c(C)c1/C=N/NC(=O)CNc1cccc(C(F)(F)F)c1 | – | inconclusive [inhibitor, single point] |
| O=C(Nc1ccc2c(c1)OCCO2)c1c(F)cccc1F | inconclusive: -16.8% [inhibitor] | – |
| CNC(=S)N/N=C(\C)c1ccccc1 | – | inconclusive [inhibitor, partial curve] |
| COc1ccc(NC(=O)c2cccnc2SC)cc1S(=O)(=O)N1CCCCC1 | inconclusive: -17.3% [inhibitor] | – |
| COc1ccccc1CNC(=O)/C=C/c1ccc(S(=O)(=O)NCc2ccco2)cc1 | – | inconclusive [inhibitor, partial curve] |
| O=c1c2ccccc2cnn1-c1nc2ccccc2[nH]1 | inactive: 1.6% | – |

Reference: PubChem BioAssay AID1466 (National Center for Advancing Translational Sciences (NCATS), 2008)
